Data on 59 molecules can be found in the supplement of paper PMC9446081.

In all, about 39,000 compounds went through this assay and about 220 (0.56%) showed activity. This is one part of the list.
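Further: static incubation at 37 °C against the wild-type strain, values averaged over two biological replicates.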

The test system of the assay is Escherichia coli K-12 BW25113. Kind of assay: relative growth (OD600 normalised to plate interquartile mean) (fraction); higher = less growth inhibition, active = 0.2 or less. The settings on record: 50 µM; LB; incubation time: overnight (16-24 h).
As to `COc1ccc(S(=O)(=O)Nc2ccc3c(c2)CC(=O)N([C@H](C)CO)C[C@H](C)[C@@H](CN(C)S(=O)(=O)c2cccs2)O3)cc1`, the relative growth was inactive: 1.01.

As to `C[C@H]1CCCCO[C@@H](CN(C)Cc2ccc(C(F)(F)F)cc2)[C@@H](C)CN([C@@H](C)CO)C(=O)c2cc(NC(=O)c3ccncc3)ccc2O1`, the relative growth is inactive: 0.998.

For the molecule `CNC(=O)C(=O)Nc1ccc(N2CCCS2(=O)=O)cc1`, the relative growth is inactive: 0.961.

As to `Cc1ccc(S(=O)(=O)N(C)C[C@H]2OCCCC[C@H](C)Oc3ccc(NC(=O)Nc4c(C)noc4C)cc3C(=O)N([C@H](C)CO)C[C@@H]2C)cc1`, the relative growth is inactive: 0.996.

For the molecule `CN(C)CCCNC(=O)C[C@@H]1CC[C@H](NS(=O)(=O)c2ccccc2)[C@@H](CO)O1`, the relative growth was inactive: 1.

`C[C@H](CO)N1C[C@H](C)[C@@H](CN(C)Cc2ccc(-c3ccccc3)cc2)Oc2c(NC(=O)c3ccc(-c4nccs4)cc3)cccc2C1=O`: the relative growth is inactive: 1.03.

For `Cc1noc(C)c1S(=O)(=O)Nc1cccc2c1O[C@H](CN(C)S(=O)(=O)c1ccccc1)[C@H](C)CN([C@H](C)CO)C2=O`, the relative growth is inactive: 1.04.

Consider `C[C@H](CO)N1C[C@H](C)[C@H](CN(C)Cc2ccc(F)cc2)Oc2cc(C#CC3CC3)ccc2S1(=O)=O`, for which the relative growth is inactive: 1.01.

As to `C[C@@H]1CN([C@H](C)CO)C(=O)c2cc(NC(=O)c3ccccc3)ccc2O[C@@H](C)CCCCO[C@H]1CN(C)C(=O)c1ccccc1`, the relative growth was inactive: 0.997.

Turning to `COc1ccc(N2CCCS2(=O)=O)cc1N`, the relative growth was inactive: 0.99.

Consider `Cc1noc(C)c1NC(=O)Nc1ccc2c(c1)C(=O)N([C@@H](C)CO)C[C@@H](C)[C@@H](CN(C)Cc1ccc(Cl)c(Cl)c1)OCCCC[C@@H](C)O2`, for which the relative growth was inactive: 1.03.

Turning to `Cc1ccc(S(=O)(=O)Nc2ccc3c(c2)CC(=O)N([C@H](C)CO)C[C@H](C)[C@H](CN(C)Cc2ccc(Oc4ccccc4)cc2)O3)cc1`, the relative growth is inactive: 0.968.

Consider `CN1C(=O)c2cc(NS(=O)(=O)c3ccc(F)cc3)ccc2OC[C@H]2O[C@@H](CC(=O)Nc3cccc4ccccc34)CC[C@@H]21`, for which the relative growth is inactive: 1.02.

Turning to `C[C@H](CO)N1C[C@H](C)[C@@H](CN(C)C(=O)Nc2ccc3c(c2)OCO3)Oc2c(NC(=O)Nc3cccc4ccccc34)cccc2C1=O`, the relative growth is inactive: 1.01.

For the molecule `C[C@@H]1CCCCO[C@@H](CN(C)Cc2ccncc2)[C@H](C)CN([C@H](C)CO)C(=O)c2cc(NC(=O)Nc3ccc(F)cc3)ccc2O1`, the relative growth was inactive: 1.01.

`CS(=O)(=O)CCNCc1nc(-c2ccc3ncnc(Nc4ccc(OCc5cccc(F)c5)c(Cl)c4)c3c2)cs1`: the relative growth is inactive: 1.01.

Regarding `COC(=O)C1=C[C@@H](O)[C@@H](O)[C@H](O[C@@H]2O[C@H](COC(=O)/C=C/c3ccccc3)[C@@H](O)[C@H](O)[C@H]2O)C1`, the relative growth was inactive: 0.984.

For `Cc1ccc(S(=O)(=O)N(C)C[C@@H]2OCCCC[C@@H](C)Oc3ccc(NC(=O)Nc4ccccc4)cc3C(=O)N([C@H](C)CO)C[C@H]2C)cc1`, the relative growth was inactive: 1.02.

On to `O=C(C[C@H]1C=C[C@@H](NC(=O)c2cccnc2)[C@@H](CO)O1)NCc1ccncn1`, for which the relative growth was inactive: 1.04.

With `C[C@H]1CCc2c(C(=O)O)csc2C1`, the relative growth is inactive: 1.01.

For `COc1ccc(S(=O)(=O)N(C)C[C@@H]2OCCCC[C@@H](C)Oc3ccc(NS(C)(=O)=O)cc3C(=O)N([C@@H](C)CO)C[C@H]2C)cc1`, the relative growth is inactive: 1.01.

Consider `COc1ccc2c(c1)OC1c3ccc(OC)cc3OCC21` (centres undefined), for which the relative growth is inactive: 0.893.

For the molecule `COc1ccc(CNC(=O)C[C@@H]2C[C@@H]3c4cc(NC(=O)NC5CCCC5)ccc4O[C@@H]3[C@@H](CO)O2)cc1`, the relative growth was inactive: 1.

With `CNc1cc(=O)n(C)c(=O)n1C`, the relative growth is inactive: 1.02.

As to `NC1=N[C@H]2CS(=O)(=O)C[C@@H]2S1`, the relative growth is inactive: 0.995.

Consider `C[C@@H]1CN([C@@H](C)CO)C(=O)c2cccc(NC(=O)C3CCOCC3)c2O[C@@H]1CN(C)Cc1ccc(Oc2ccccc2)cc1`, for which the relative growth is inactive: 1.01.

For `COCC#Cc1ccc2c(c1)O[C@H](CN(C)C(=O)CN(C)C)[C@H](C)CN([C@H](C)CO)S2(=O)=O`, the relative growth was inactive: 0.994.

In the case of `Cc1ccc(S(=O)(=O)Nc2ccc3c(c2)C(=O)N([C@H](C)CO)C[C@H](C)[C@H](CN(C)S(=O)(=O)c2ccc(F)cc2)OCCCC[C@H](C)O3)cc1`, the relative growth was inactive: 0.899.

On to `COc1ccc(S(=O)(=O)Nc2ccc3c(c2)CC(=O)N([C@@H](C)CO)C[C@@H](C)[C@@H](CN(C)S(=O)(=O)c2c(C)noc2C)O3)cc1`, for which the relative growth was inactive: 1.02.

`O=C(C[C@H]1C=C[C@@H](NC(=O)c2cccnc2)[C@@H](CO)O1)NCCN1CCCCC1`: the relative growth was inactive: 1.02.

As for `CC(C)NC(=O)Nc1ccc2c(c1)C(=O)N([C@@H](C)CO)C[C@@H](C)[C@H](CN(C)C(=O)Nc1ccc(C(F)(F)F)cc1)OCCCC[C@@H](C)O2`, the relative growth was inactive: 1.03.

Take `O=C1CN(S(=O)(=O)Cc2ccccc2)C[C@H]2[C@H](c3ccc(C#Cc4ccc(F)cc4)cc3)[C@@H](CO)N12`: the relative growth was inactive: 0.965.

Consider `C[C@H]1CN([C@@H](C)CO)C(=O)c2cccc(NC(=O)C3CCOCC3)c2O[C@@H]1CN(C)C(=O)Nc1ccc2c(c1)OCO2`, for which the relative growth is inactive: 1.03.

For the molecule `C[C@H](CO)N1C[C@H](C)[C@H](CN(C)C(=O)c2ccncc2)Oc2ncc(-c3ccc(C(=O)N(C)C)cc3)cc2C1=O`, the relative growth was inactive: 0.98.

With `CN(C)CCC(c1ccccc1)c1ccccn1.O=C(O)C=CC(=O)O` (centres undefined), the relative growth is inactive: 0.966.

Turning to `Nc1nc(N)c2nc(-c3ccccc3)c(N)nc2n1`, the relative growth was inactive: 0.805.

On to `C[C@H]1CN([C@@H](C)CO)C(=O)c2c(c3ccccc3n2C)-c2ccccc2CO[C@H]1CN(C)C(=O)Nc1ccc2c(c1)OCO2`, for which the relative growth is inactive: 1.03.

For the molecule `C[C@H](CO)N1C[C@H](C)[C@H](CN(C)Cc2ccc(Oc3ccccc3)cc2)Oc2ccc(NC(=O)Nc3ccc(F)cc3)cc2CC1=O`, the relative growth was inactive: 1.07.

For `NCc1cc2ccccc2s1`, the relative growth is inactive: 0.994.

As to `C[C@H](CO)N1C[C@H](C)[C@H](CN(C)S(=O)(=O)c2cn(C)cn2)Oc2ncc(C3=CCCCC3)cc2C1=O`, the relative growth is inactive: 0.998.

For `O=C(O)[C@H]1O[C@@H](Oc2c(-c3ccc(O)c(O)c3)oc3cc(O)cc(O)c3c2=O)[C@H](O)[C@@H](O)[C@@H]1O`, the relative growth was inactive: 0.956.

With `C[C@H]1CN([C@@H](C)CO)C(=O)c2cccc(NC(=O)C3CCCCC3)c2O[C@H]1CN(C)Cc1ccc(-c2ccccc2)cc1`, the relative growth is inactive: 0.993.

For the molecule `C[C@@H]1CCCCO[C@H](CN(C)C(=O)CCCN(C)C)[C@@H](C)CN([C@@H](C)CO)C(=O)c2cc(N(C)C)ccc2O1`, the relative growth is inactive: 1.

Regarding `C[C@H]1CN([C@@H](C)CO)C(=O)c2cccc(NC(=O)CCCCCC(=O)Nc3ccccc3N)c2O[C@@H]1CN(C)C(=O)Nc1ccccc1`, the relative growth was inactive: 1.

As for `C[C@@H]1CCCCO[C@@H](CN(C)C)[C@H](C)CN([C@H](C)CO)C(=O)c2cc(NC(=O)CCCCCC(=O)Nc3ccccc3N)ccc2O1`, the relative growth was inactive: 1.03.

As for `COc1cccc(C(=O)Nc2ccc3c(c2)C(=O)N(C)[C@H]2CC[C@H](CC(=O)NCCCN4CCOCC4)O[C@H]2CO3)c1`, the relative growth is inactive: 1.01.

In the case of `C[C@H](CO)N1C[C@H](C)[C@@H](CN(C)C(=O)C2CCOCC2)Oc2ncc(C#Cc3ccccc3F)cc2C1=O`, the relative growth was inactive: 1.

Consider `CC(C)NC(=O)Nc1ccc2c(c1)C(=O)N([C@H](C)CO)C[C@@H](C)[C@@H](CN(C)C(=O)NC1CCCCC1)O2`, for which the relative growth was inactive: 1.

Turning to `CO[C@H]1C[C@@H](C[C@@H](C)[C@H]2CC(=O)[C@H](C)/C=C(\C)[C@@H](O)[C@H](OC)C(=O)[C@H](C)C[C@H](C)/C=C/C=C\C=C(C)[C@H](OC)C[C@@H]3CC[C@@H](C)[C@@](O)(O3)C(=O)C(=O)N3CCCC[C@H]3C(=O)O2)CC[C@H]1OC(=O)C(C)(CO)CO`, the relative growth was inactive: 0.951.

In the case of `C[C@@H]1CN([C@H](C)CO)C(=O)c2cc(NC(=O)Nc3ccc(C(F)(F)F)cc3)ccc2O[C@H]1CN(C)Cc1ccc(-c2ccccc2)cc1`, the relative growth is inactive: 1.02.

`Cc1ccc(S(=O)(=O)Nc2ccc3c(c2)C(=O)N([C@H](C)CO)C[C@@H](C)[C@@H](CN(C)CC2CCCCC2)OCCCC[C@H](C)O3)cc1`: the relative growth is inactive: 0.987.

In the case of `C[C@@H]1CN([C@@H](C)CO)C(=O)c2cc(NS(=O)(=O)c3ccccc3)ccc2O[C@@H](C)CCCCO[C@@H]1CN(C)CC1CCCCC1`, the relative growth is inactive: 0.973.

With `C[C@@H](O)Cn1cnc2c1c(=O)n(C)c(=O)n2C`, the relative growth was inactive: 1.

For `C[C@@H]1CN([C@H](C)CO)S(=O)(=O)c2ccc(-c3ccccc3F)cc2O[C@H]1CN(C)Cc1cncnc1`, the relative growth is inactive: 0.994.

For `C[C@@H]1CN([C@@H](C)CO)C(=O)c2cc(NC(=O)Nc3cccc4ccccc34)ccc2O[C@H]1CN(C)S(=O)(=O)c1cccs1`, the relative growth is inactive: 0.894.

As to `C[C@@H]1CN([C@H](C)CO)C(=O)Cc2cc(NS(C)(=O)=O)ccc2O[C@H]1CN(C)S(=O)(=O)c1cn(C)cn1`, the relative growth is inactive: 1.01.

As for `CO[C@@H]1CN(C)C(=O)c2cc(NC(=O)Nc3ccccc3)ccc2OC[C@@H](C)N(C(=O)CN(C)C)C[C@@H]1C`, the relative growth is inactive: 0.99.

`C=CCC1C=C(C)CC(C)CC(OC)C2OC(O)(C(=O)C(=O)N3CCCCC3C(=O)OC(C(C)=CC3CCC(O)C(OC)C3)C(C)C(O)CC1=O)C(C)CC2OC` (centres undefined): the relative growth was inactive: 0.932.

Take `COc1cccc(S(=O)(=O)N(C)C[C@@H]2Oc3ncc(-c4ccccc4)cc3C(=O)N([C@H](C)CO)C[C@@H]2C)c1`: the relative growth was inactive: 1.
